# In article PMC5836133:
# Some of the results follow. At the low end of the ranking the order means little.
# Test system: T1, GST-NbGlk1(82-244)
# T1 sequence: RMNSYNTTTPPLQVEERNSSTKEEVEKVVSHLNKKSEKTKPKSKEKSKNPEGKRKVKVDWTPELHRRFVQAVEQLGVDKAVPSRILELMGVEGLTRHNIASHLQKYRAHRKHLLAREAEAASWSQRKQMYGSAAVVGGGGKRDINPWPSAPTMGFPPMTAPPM
# Experiment: protein-binding microarray;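 further: rank-based score ranging −0.5 to +0.5 with E above 0.45 taken as significant binding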
# Conditions: NbGlk1 is a Golden2-like transcription factor of Nicotiana benthamiana; high values mean tight binding; most listed sequences are background and not binding sites; double strand, one strand shown
row,Sequence,binding signal [E-score]
1,CAACCTAA,-0.0796
2,ATCGCAAA,0.234
3,AGCAATTC,0.094
4,ATAGCTCC,-0.229
5,AGCTCTAA,-0.115
6,CAATTCGC,0.0698
7,ACGATGGG,0.0351
8,ATCTGTTC,0.214
9,ACCAACTA,-0.0676
10,AGTTCGGG,-0.164
11,AGAGCTCT,-0.229
12,ATATCAAC,0.287
13,AATAGCCC,-0.0536
14,ATGAGGAA,-0.0357
15,ACATTGCG,0.0274
16,CAATCGGG,0.14
17,AGTCCGAT,-0.0133
18,AGAAAGCC,-0.187
19,ACTAGACG,-0.154
20,AACATTGC,0.0366
21,AGATGATA,0.182
22,CACAAAAC,0.0651
23,AGCCGAAC,-0.14
24,ACGGTTGC,-0.0495
25,AGCTATTG,-0.077

row,Sequence,binding signal [E-score]
1,ACGTCGAG,-0.0697
2,ATGGTTCC,-0.0286
3,AGCCTTAT,-0.0399
4,AACTGAAC,-0.0586
5,AATCCAGG,0.415
6,ATACACAC,-0.00856
7,ATGTTATC,0.115
8,AAAGGCCG,-0.249
9,AGGTCGGG,-0.24
10,AGTCGTGA,-0.0787
11,ATGCTGGG,-0.169
12,AGTATCCC,0.0888
13,AAGATACT,0.283
14,AGGGTCCC,-0.271
15,ATCTATGG,0.205
16,ACACGCAC,-0.0788
17,CAACGAGA,0.138
18,AGTGGTAC,-0.127
19,AGTCCGTA,-0.0531
20,AGATAAAA,0.123
21,AGATTAGC,0.0843
22,ATACCGCC,0.0728
23,AGGCGCAC,-0.21
24,ACCACGGC,-0.295
25,ATCTATTC,0.283

row,Sequence,binding signal [E-score]
1,AGTCTGGC,-0.278
2,ACACATGA,0.0829
3,CACCCTGG,-0.209
4,AGAGTGCC,-0.209
5,AGTAGGGC,-0.253
6,CACACTCA,0.0601
7,ATAGGACA,-0.0762
8,ACTGGGGC,-0.157
9,ATAGCCAC,5.52e-05
10,AGGTGTAT,0.069
11,AGTTCGAG,0.041
12,AGCCCTCC,-0.313
13,ATAGATGA,0.057
14,AGATCCAT,0.195
15,AGGGTAGA,-0.0101
16,AGACACTG,-0.0337
17,CAGCCTTC,-0.276
18,AAAGTGAT,0.217
19,ACGTCTGC,-0.172
20,AGGCATAC,-0.0786
21,ACGCTGAG,0.0237
22,AACAGGCA,-0.0499
23,ATATCAGC,0.268
24,ATATCATC,0.311
25,AGCCCGGA,-0.203

row,Sequence,binding signal [E-score]
1,AAGGATTA,0.278
2,ATATCATG,0.373
3,CACGTGCC,-0.0897
4,AAATACAT,0.148
5,AAAGTAAC,-0.0535
6,AGCTAGGA,0.0562
7,AGAATTCT,0.299
8,AACTTGGG,-0.23
9,ATATAAAT,0.276
10,ATTAAATA,0.111
11,AGATAGGC,-0.000114
12,ATGTTCGC,-0.207
13,ACAGTTAC,-0.0164
14,ACGTCGCT,-0.0903
15,ATTCATGC,0.0644
16,AACCCTAA,-0.114
17,CAGCCGAG,-0.083
18,ACGCATTA,0.0439
19,AATAGCGA,0.0762
20,AGTGTCTA,-0.0647
21,AGAAATTA,0.17
22,AGGCGTAT,0.101
23,ATACAGCA,0.0291
24,AGAACGCC,-0.229
25,ACCCAAAC,0.0447

row,Sequence,binding signal [E-score]
1,ATGCCCAT,-0.0242
2,AGTCGAAG,-0.123
3,AACGTCGC,-0.0232
4,ATTGATTA,0.145
5,AAACATCT,-0.0426
6,AAATGACT,-0.0301
7,ATATAAAG,0.107
8,ATGAACCA,-0.0258
9,ATTATGAC,0.12
10,AGCAGTTA,-0.0416
11,ATCAGTAC,0.189
12,ACGCCTGA,-0.0157
13,ATCCCGCG,0.151
14,ACCCACTG,-0.222
15,CACATCCC,-0.0296
16,ATCCAGAG,0.168
17,AACGATGG,0.0149
18,ATCGGGAG,0.119
19,ATCAGTGC,0.107
20,AGCCTTTG,-0.315
21,ATGTTAAA,0.151
22,ATAACATA,0.073
23,ATATGGTG,0.189
24,AAATACCG,0.15
25,CAACGGGC,-0.22

row,Sequence,binding signal [E-score]
1,AAGGGTGA,-0.146
2,AAAGCAAA,0.0674
3,AATTGTTA,0.154
4,ACAGACTG,-0.264
5,AACCCTTA,-0.215
6,AAAATGAA,0.153
7,AGATTTAT,0.261
8,ACAATAAG,0.0285
9,CAGCGAGA,0.00393
10,ATTGTGGA,0.202
11,ATCTTAAA,0.272
12,ATTAAAAA,0.0739
13,ATCTGGTC,0.262
14,CAACACCC,-0.264
15,AAAAGGAC,-0.107
16,ACGGTCTG,-0.135
17,AACGTCTT,-0.0984
18,ATAGCTGC,-0.039
19,ATGCTACA,-0.00326
20,ACATGTGG,-0.225
21,CAATAGAC,-0.0684
22,AGGCCAAG,-0.141
23,AGCATAAA,-0.0921
24,ATGTCCGG,-0.0686
25,ACCTGGAA,-0.105

row,Sequence,binding signal [E-score]
1,ATTGTGTG,0.203
2,AGTCAAAT,0.0613
3,ATATACTA,0.155
4,AAATCTCA,0.444
5,AAAAGGCT,-0.177
6,AAAATAAA,0.218
7,ATTGGACC,-0.163
8,AACATACG,-0.098
9,CAACCGTA,-0.019
10,AGCTATTA,-0.0662
11,ATCCGCGG,0.28
12,ACCATACC,-0.0604
13,ATACGAGC,0.0456
14,ACTTACAG,-0.162
15,ACTATCTC,0.171
16,AACGCCGG,-0.128
17,ATAGTCGC,-0.193
18,ACAACAAT,0.126
19,AGGTAATG,-0.0688
20,ACCGACCA,-0.163
21,ATTTTAGC,0.0519
22,AGCGTCAT,-0.173
23,AAGTATCC,0.128
24,ATGGTCCG,-0.123
25,ATGTTCGG,-0.02

row,Sequence,binding signal [E-score]
1,CAACTGTA,-0.128
2,AGCTTCGG,-0.129
3,ACCTTGCT,-0.0753
4,AGTCCACG,-0.279
5,AGATCTAA,0.303
6,AATATACA,0.21
7,AGTCCGGG,-0.317
8,ATCATGAT,0.205
9,ATTCTGGG,0.133
10,ACAAAGCG,-0.132
11,ACTTTGTC,-0.0795
12,ATACCGCG,0.0651
13,CACCAGTC,-0.264
14,AAGCCTAT,0.0307
15,ACACATGG,-0.225
16,ACCCACCT,-0.108
17,AGAAGTAT,0.214
18,ACTCCGGG,-0.14
19,AACCAAAA,0.124
20,AGTCAAAA,0.01
21,ATGACGTC,-0.108
22,AAACCAGA,0.00887
23,AACATTTG,0.0229
24,CAAGCTAC,-0.233
25,AAGACCGC,-0.278

row,Sequence,binding signal [E-score]
1,ACGGTCCG,-0.239
2,ATGCTTCC,-0.0887
3,AAAACTGA,0.113
4,ATCGCCTC,0.148
5,AATTCTCT,0.225
6,CAGAGGGC,-0.257
7,AACGACGT,-0.036
8,AGCTGTAC,-0.145
9,AGCCAATG,-0.135
10,CAATATTC,0.217
11,CAGACAGC,-0.18
12,AGTGGCAG,-0.103
13,ACCGATAT,0.364
14,CAAAGCTC,-0.246
15,CAACCAGG,-0.0798
16,CAAATGTA,-0.123
17,AGAGTAAA,-0.0726
18,ATAGATCC,0.21
19,AGCGATCC,0.274
20,ATATAACC,-0.0154
21,AAATGATG,0.051
22,ACGAGAAA,0.133
23,CAGCCACG,-0.235
24,AGCATTGA,-0.207
25,ACAGCGCC,-0.0907

row,Sequence,binding signal [E-score]
1,AGTTGTGA,-0.0884
2,AAAAGACT,-0.0557
3,ACACACAC,-0.0418
4,ACTAGGCC,-0.203
5,ATCGAGGC,-0.0579
6,ATCCCAAT,0.201
7,ACACTGCT,-0.0856
8,ACTCTTCG,-0.0546
9,ACCAGAAC,-0.166
10,AGGTGATA,0.0464
11,AAGACTCA,-0.18
12,CAATTACC,0.0684
13,ATAGGAAG,0.00375
14,AACCAGGA,-0.131
15,ATGTCAAA,0.00806
16,ATGCCCGG,-0.132
17,AGGACCGC,-0.276
18,AAAGCAAC,-0.0724
19,ACGGCAGA,-0.0613
20,ACGATTCG,0.324
21,ATCACGAG,0.129
22,ATCAAGAA,0.0956
23,AAAATCTT,0.447
24,AGGGCCGC,-0.363
25,AGGCTTCA,-0.241

row,Sequence,binding signal [E-score]
1,ATGTACAC,0.0354
2,ATAAGGAA,0.114
3,AGTGGCCA,-0.116
4,ACTGCAGA,0.0743
5,ACCAAATC,0.406
6,AAATACAG,0.163
7,AATCCTCT,0.366
8,CAACTCCC,-0.17
9,CAGCATCA,0.159
10,ATAATTAC,0.19
11,AGATGGTC,-0.0945
12,AGTCATCG,-0.197
13,AGCTCATA,-0.12
14,AAGACGAT,0.221
15,AGGATTCA,0.14
16,ACCACACT,-0.105
17,ATGCCTTG,-0.0561
18,ACCGACTA,-0.0528
19,AGTCGGAT,0.0372
20,ACTTTACC,-0.0908
21,AATCGATA,0.302
22,AGAACCCC,-0.188
23,AGGCTTAT,-0.0612
24,AGAAGCAA,-0.111
25,ACACCAGT,-0.238

row,Sequence,binding signal [E-score]
1,AGCGACGA,0.0712
2,ACGCTGCC,-0.171
3,AACGACCA,-0.0768
4,AACGCCGC,-0.196
5,AGTATAGG,-0.0161
6,CACGCTTC,-0.2
7,AGCAGGTA,-0.0722
8,AAGTGAGC,-0.0311
9,AGGATAAG,0.056
10,AAATTTCA,0.229
11,AGTTCAAC,-0.109
12,ACGCCGTG,-0.136
13,AGTACGCC,-0.205
14,ATAGTTGC,0.0654
15,AAGAAAAC,-0.209
16,AGCGACGC,-0.131
17,AAATTATT,0.194
18,CAAATATG,0.212
19,AGTTTCCG,-0.12
20,ACATTATG,0.0963
21,AGCTGCCC,-0.248
22,AACGATCG,0.0987
23,AGAGGTTA,-0.151
24,AGCGTGAT,0.156
25,AAACTACT,0.127

row,Sequence,binding signal [E-score]
1,ACCGCAAT,0.302
2,CAAGCTTA,-0.166
3,AGAATCCA,0.456
4,ATATATTG,0.316
5,AGGCATTA,-0.0293
6,CAAATAGA,0.138
7,ACGATCAC,0.156
8,ACGCTTGC,-0.128
9,AGACTCTC,-0.169
10,AATGCAAT,0.303
11,CAGCACAA,-0.0499
12,ATTTGCCG,0.238
13,ATATGGAA,0.219
14,AATCATCG,0.225
15,AGGTGGGC,-0.213
16,ATCAGATA,0.311
17,ACGTTCAA,-0.0144
18,AACTACAT,0.031
19,ACGACAGT,-0.208
20,ATACGCTA,0.239
21,ATCGGCGA,0.184
22,AAGCTAAT,-0.0497
23,ACCACAAT,0.155
24,ATGAAACC,-0.0677
25,AAGCGAGG,-0.102

row,Sequence,binding signal [E-score]
1,ACTTATTG,0.0501
2,ACACCTCC,-0.00427
3,AGCCTCGG,-0.152
4,AGCGCATC,-0.0255
5,AAGAATCC,0.455
6,AGAACGAC,-0.13
7,ATGCCTGG,-0.195
8,AGAAGCTA,-0.231
9,AGATATGA,0.318
10,AGCGTCTC,-0.337
11,AGGCTAGA,-0.00448
12,AGGCGACG,-0.124
13,ACGACAAG,-0.115
14,ACATTCTC,0.0798
15,ACCCCTAT,-0.0331
16,AAAACAGG,0.0296
17,CAAGTGCA,-0.0346
18,ACACCCAT,-0.00979
19,AGCCTATG,-0.237
